Data: PubChem BioAssay AID588342 (National Center for Advancing Translational Sciences (NCATS), 2011)
The whole screen tested about 360,000 compounds, of which about 25,000 (6.9%) were called active. This list was built around the results that the source calls inconclusive (neither active nor inactive); the mix of calls is not that of the screen. The call rests on the fitted dose curve; in most records, active means well fitted inhibition curve with a large enough effect; inconclusive means small, poorly fitted or top-dose-only effect; inactive means flat fitted curve, though single readings scatter. Where the call is inconclusive, the potency comes from a doubtful curve fit.

The compounds below were run against Luciferin 4-monooxygenase (Photinus pyralis) (UniProt P08659) (assay: qHTS profiling assay for firefly luciferase inhibitor/activator using purifed enzyme and Km concentrations of substrates (counterscreen for miR-21 project)). Conditions: purified FLuc, luminescence inhibition; series mostly up to 57.5 µM; activity change, negative = inhibition: at the top concentration.
Procedure, shortened: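 Purified P. pyralis luciferase, 10 nM final, with Km-level 10 uM D-luciferin and 10 uM ATP in 50 mM Tris acetate pH 7.5, 10 mM Mg acetate, 0.01% Tween-20, 0.05% BSA; 6-point qHTS titration about 60 µM downward; luminescence read.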
Further: nearly all actives have a fitted effect of over 55% in size.
Potency means the concentration at half of the fitted maximal effect; tags describe the fitted curve by direction and shape.
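Wherever activity change, negative = inhibition is given: plate controls were vehicle for no effect and reference inhibitor for full effect.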

UniProt P08659, sequence (P08659 whole entry, looked up): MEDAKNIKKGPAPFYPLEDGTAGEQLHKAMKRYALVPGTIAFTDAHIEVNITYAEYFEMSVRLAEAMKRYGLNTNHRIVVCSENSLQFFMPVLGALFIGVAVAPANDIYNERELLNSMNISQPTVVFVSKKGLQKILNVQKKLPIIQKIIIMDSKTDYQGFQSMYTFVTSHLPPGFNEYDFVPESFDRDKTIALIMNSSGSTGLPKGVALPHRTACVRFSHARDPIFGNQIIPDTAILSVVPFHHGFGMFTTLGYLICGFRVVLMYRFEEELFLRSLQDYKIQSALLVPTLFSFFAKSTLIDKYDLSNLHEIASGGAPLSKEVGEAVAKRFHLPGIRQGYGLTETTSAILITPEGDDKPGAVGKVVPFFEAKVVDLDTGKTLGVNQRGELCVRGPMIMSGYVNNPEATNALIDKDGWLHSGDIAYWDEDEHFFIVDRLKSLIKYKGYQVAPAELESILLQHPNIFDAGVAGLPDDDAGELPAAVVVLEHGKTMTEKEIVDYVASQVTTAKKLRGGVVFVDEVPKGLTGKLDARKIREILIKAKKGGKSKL

SMILES | Potency | activity change, negative = inhibition
CC(=O)c1ccc(NC(=S)N2CCC(Cc3ccccc3)CC2)cc1 | inconclusive: 16.9 µM [inhibitor, partial curve] | 
C=CCn1cccc(/C=C/C(=O)c2ccc(C(C)(C)C)cc2)c1=S | active: 13.5 µM | 
Cc1oc2cc3oc(=O)c(CC(=O)N[C@H](C(=O)N[C@@H](C(=O)O)c4ccccc4)C(C)C)c(C)c3cc2c1C | inconclusive: 26.9 µM [inhibitor, partial curve, poor fit] | 
COCc1c(C(=O)NC2CCCCCC2)oc2ccccc12 |  | inactive: -7.35%
COc1ccc2ccccc2c1CN1CCN(C(=O)c2ccco2)CC1 |  | inactive: -2.45%
NS(=O)(=O)c1ccc2nc(NC(=O)Nc3ccc(F)cc3)sc2c1 | inconclusive: 7.57 µM [inhibitor, partial curve] | 
CSCC[C@@H](Nc1nc(-c2ccccc2)nc2c1oc1ccccc12)C(=O)O | inconclusive: 30.1 µM [inhibitor, partial curve, poor fit] | 
CCc1nc(SCc2ccc(OC)cc2)n[nH]1 | inconclusive: 23.9 µM [inhibitor, partial curve, poor fit] | 
COc1ccc(/C=N/NC(=O)c2sc(C)nc2C)cc1 | inconclusive: 23.9 µM [inhibitor, single point] | 
CCOC(=O)c1c(-c2ccc(C)cc2)csc1NC(=O)c1cc(=O)c2cc(C)ccc2o1 | inconclusive: 26.9 µM [inhibitor, partial curve, poor fit] | 
Cc1c(C(=O)NCc2cccnc2)oc2ccc(S(=O)(=O)N3CCCCC3)cc12 |  | inactive: -5.19%
FC(F)(F)c1cnc2c(-c3ccccc3)n[nH]c2c1 | inconclusive: 30.1 µM [inhibitor, partial curve, poor fit] | 
COc1ccc(-c2oc3ncn4nc(COc5cccc(C)c5C)nc4c3c2-c2ccc(OC)cc2)cc1 |  | inactive: -0.626%
O=C(CSc1cn(CCNC(=O)c2ccccc2)c2ccccc12)NCc1ccco1 | inconclusive: 30.1 µM [inhibitor, partial curve, poor fit] | 
COc1ccc(CC(=O)Nc2cccc(C(=O)NN3C(=O)c4ccccc4C3=O)c2C)cc1 | inconclusive: 6.75 µM [inhibitor, partial curve, poor fit] | 
COC(=O)c1ccc(NC(=O)C(OC)c2ccccc2)cc1 (stereo not drawn) | inconclusive: 30.1 µM [inhibitor, partial curve, poor fit] | 
CCCCn1c(-c2c(Cl)c(C)nn2C)n[nH]c1=S | inconclusive: 37.9 µM [inhibitor, partial curve, poor fit] | 
COc1ccc2c(c1)c(=O)oc1cc(OCC(=O)N3CCCC(C)C3)ccc12 (stereo not drawn) | inconclusive: 16.9 µM [inhibitor, partial curve] | 
Cc1cccc(NC(=O)c2nc[nH]c2C(=O)NCC(=O)OCc2ccccc2)c1 | inconclusive: 23.9 µM [inhibitor, partial curve, poor fit] | 
CC1CCC(NC(=O)c2ccc(N3CCCC3=O)cc2)CC1 (stereo not drawn) | inconclusive: 26.9 µM [inhibitor, single point] | 
CCc1ccc(NC(=O)CN(C)S(=O)(=O)c2ccc3[nH]c(=O)oc3c2)cc1 | inconclusive: 26.9 µM [inhibitor, partial curve, poor fit] | 
CC(C)n1c(O)c(N=NC(=O)c2ccccc2NS(=O)(=O)c2cccs2)c2ccccc21 | inconclusive: 21.3 µM [inhibitor, partial curve] | 

SMILES | Potency | activity change, negative = inhibition
Fc1ccc(CSc2nnc(-c3cccs3)o2)cc1 | inconclusive: 23.9 µM [inhibitor, single point] | 
Cc1ccc(-c2cc(C(=O)NCCCN3CCCC3)c3ccccc3n2)cc1C | inconclusive: 21.3 µM [inhibitor, partial curve] | 
CSc1ccc(/C=C/C(=O)NC(=O)c2ccccc2O)cc1 | active: 0.601 µM | 
Cc1ccc(S(=O)(=O)CC(=O)c2ccc3c(c2)OCCO3)cc1 | active: 13.5 µM | 
COc1cccc(C(=O)Nc2nc3nc(-c4ccccc4)cc(=O)n3[nH]2)c1 | inconclusive: 12 µM [inhibitor, partial curve] | 
COc1ccc(C(=O)NNC(=O)c2cccc(F)c2)cc1 | inconclusive: 13.5 µM [inhibitor, partial curve, poor fit] | 
COc1ccc(-c2nnc(NC(=O)C3=COCCO3)o2)cc1 | inconclusive: 15.1 µM [inhibitor, partial curve, poor fit] | 
COc1ccccc1CNC(=O)CCCc1ccccc1 | inconclusive: 23.9 µM [inhibitor, single point] | 
COC(=O)CNC(=O)C1CCC(CNS(=O)(=O)c2cccc3nsnc23)CC1 (stereo not drawn) |  | inactive: 1.92%
CCc1ccc(NC(=O)CSc2nnc(-c3cccs3)n2CC)cc1 | inconclusive: 19 µM [inhibitor, partial curve] | 
CCOc1ccc(S(=O)(=O)n2nc(C)cc2C)cc1 |  | inactive: 1.48%
CC(C)c1ccc(OCC(=O)NCCO)cc1 | inconclusive: 23.9 µM [inhibitor, single point] | 
COc1ccccc1N/C=C(\C#N)c1nc2ccccc2[nH]1 | active: 3.38 µM | 
Cc1sc(NC(=O)C2CC(Cl)=CCC2C(=O)O)c(C#N)c1C (stereo not drawn) | inconclusive: 13.5 µM [inhibitor, partial curve, poor fit] | 
CC(OC(=O)c1ccco1)C(=O)Nc1ncc(Cl)cc1Cl (stereo not drawn) |  | inactive: -2.3%
O=C(CCSCc1ccccc1)Nc1ccc2c(c1)OCCO2 | active: 9.53 µM | 
CCOc1ccc(/C=N/NC(=O)c2nnn(-c3nonc3N)c2-c2cccs2)cc1 | inconclusive: 8.49 µM [inhibitor, partial curve] | 
CCc1ccccc1NS(=O)(=O)c1ccc2[nH]cc(C(=O)N(CC(C)C)CC(C)C)c(=O)c2c1 | inconclusive: 7.57 µM [inhibitor, partial curve] | 
CCn1c(SCC(=O)Nc2ccccc2C(=O)OC)nnc1-c1ccc(N)cc1 |  | inactive: 2.64%
Cc1[nH]c2ccccc2c1-c1csc(NC(=O)CSCCO)n1 | inconclusive: 23.9 µM [inhibitor, single point] | 
CCCC(c1nnnn1Cc1cccs1)N1CCN(c2nc3ccccc3s2)CC1 (stereo not drawn) |  | inactive: -0.166%
